{"source": "PubChem BioAssay AID1508642", "about": "(National Center for Advancing Translational Sciences (NCATS), 2021)", "note": "The whole screen tested about 43,000 compounds, of which about 200 (0.47%) were called active. Inconclusive results, whose numbers are uncertain, are shown with a selection of clear calls. Calls follow the shape of the dose curve; as a rule, active = well fitted cell-killing curve with a large enough effect; inconclusive = small, poorly fitted or top-dose-only effect, or effect the other way; inactive = flat fitted curve, though single readings scatter. Potencies beside an inconclusive call are fits to weak or partial responses and may not hold up. % is scaled to controls: 0 for no effect and ±100 for the full control effect; potency is read from the fitted curve at half-maximal effect; tags tell the direction and shape of the fitted curve."}
{"test": "Cell viability qHTS assay in S16 Pmp22-F2sN cells; also: nearly all actives have a fitted effect of over 65% in size", "details": "S16 Pmp22-F2sN Schwann cells (luciferase reporters placed in the Pmp22 gene) viability, CellTiter-Glo, 24 h; activity change, negative = cytotoxicity: at 57.5 µM (top of the series)", "procedure,_shortened": "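Luminescence from CellTiter-Glo, read by CCD camera after a 15 min room-temperature incubation, served as the viability signal. Reporter Schwann cells (S16 Pmp22-F2sN) had been treated with pin-transferred compounds for 24 h at 37C.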"}
{"smiles": "CCOc1ccc(NS(=O)(=O)c2cc3c(cc2Cl)NC(=O)CO3)cc1", "Potency": "inconclusive: 39.8 µM [cytotoxic, partial curve, poor fit]"}
{"smiles": "COc1ccc(NC(=O)Cn2c(=O)n(Cc3nc(-c4ccccc4)no3)c(=O)c3ccccc32)cc1Cl", "Potency": "inconclusive: 39.8 µM [cytotoxic, partial curve, poor fit]"}
{"smiles": "COc1cc(C(=O)n2nc(C)c(Sc3ccc(Cl)cc3)c2C)cc(OC)c1OC", "activity change, negative = cytotoxicity": "inactive: 13.4%"}
{"smiles": "Cc1cccc(N2CCN(CCNC(=O)Nc3ccc(Cl)cc3)CC2)c1C", "Potency": "inconclusive: 39.8 µM [cytotoxic, single point]"}
{"smiles": "CCc1ccc(C(=O)c2cn(CC(=O)Nc3ccc4c(c3)OCO4)c3ccc(OC)cc3c2=O)cc1", "activity change, negative = cytotoxicity": "inactive: 9.95%"}
{"smiles": "Cc1ccccc1OCc1ccc(-c2nc(C#N)c(NCc3cccnc3)o2)o1", "Potency": "inconclusive: 39.8 µM [cytotoxic, single point]"}
{"smiles": "COc1cc(NC(=O)c2cccc3c2C(=O)N(C2CCCCC2)C3)cc(OC)c1OC", "Potency": "inconclusive: 39.8 µM [cytotoxic, single point]"}
{"smiles": "COc1ccc(CNC(=O)CCCN2C(=O)CSc3c2c(C)nn3-c2ccccc2)cc1", "Potency": "inconclusive: 1 µM [cytotoxic, full curve, poor fit]"}
{"smiles": "CCN(CC)CCNC(=O)C1CCN(c2nn3cc(-c4ccc(F)cc4)nc3s2)CC1", "Potency": "inconclusive: 31.6 µM [cytotoxic, single point]"}
{"smiles": "CC(C)OCCCNC(=O)c1ccc(CSc2nc3cccnc3n2Cc2ccccc2)cc1", "Potency": "inconclusive: 39.8 µM [cytotoxic, partial curve, poor fit]"}
{"smiles": "O=C(OCc1cc(=O)n2nc(-c3cccs3)sc2n1)c1ccc(Cl)cc1", "Potency": "inconclusive: 0.316 µM [cytotoxic, full curve, poor fit]"}
{"smiles": "Cc1nc2nc(CNC(=O)OC(C)(C)C)nn2c(C)c1CCC(=O)NCc1ccc(F)cc1", "Potency": "inconclusive: 0.251 µM [cytotoxic, full curve]"}
{"smiles": "COC(=O)c1c(SCC(=O)Nc2cc(OC)cc(OC)c2)[nH]c2ccc(C)cc2c1=O", "Potency": "inconclusive: 22.4 µM [cytotoxic, partial curve]"}
{"smiles": "CCOc1ccc(NC(=O)c2c(NC(=O)Cc3ccccc3)sc3c2CCC(C)C3)cc1", "note": "(stereo not given)", "Potency": "inconclusive: 31.6 µM [cytotoxic, single point]"}
{"smiles": "CCn1c(=O)cc(SCC(=O)NCCc2cc(OC)ccc2OC)c2ccccc21", "Potency": "inconclusive: 39.8 µM [rising, single point]"}
{"smiles": "COc1ccc(C(=O)NCCc2sc(-c3ccc(Cl)cc3)nc2C)c(OC)c1", "Potency": "inconclusive: 0.0178 µM [rising, full curve]"}
{"smiles": "Cc1oc(-c2ccc(Cl)cc2)nc1CN1CCC(C(=O)NCCCN2CCN(c3cccc(Cl)c3)CC2)CC1", "Potency": "inconclusive: 28.2 µM [cytotoxic, single point]"}
{"smiles": "Cc1cc(F)ccc1S(=O)(=O)Nc1ccc2c(c1)CCCN2C(=O)c1cccs1", "Potency": "inconclusive: 25.1 µM [cytotoxic, single point]"}
{"smiles": "Cc1ccc(-n2ncc3c(NCCCn4ccnc4)ncnc32)cc1Cl", "Potency": "inconclusive: 25.1 µM [cytotoxic, single point]"}
{"smiles": "COc1ccc(NC(=O)CSc2nc(-c3ccco3)cc(C(F)(F)F)n2)cc1", "activity change, negative = cytotoxicity": "inactive: 0.863%"}
{"smiles": "COc1ccc(NC(=O)Cn2c(=O)n(Cc3ccc(C(=O)NCc4ccccc4Cl)cc3)c(=O)c3ccccc32)cc1OC", "activity change, negative = cytotoxicity": "inactive: -11.6%"}
{"smiles": "COc1ccc(C(=O)NCC2(N3CCN(C)CC3)CCCCC2)cc1", "Potency": "inconclusive: 28.2 µM [rising, partial curve, poor fit]"}
{"smiles": "CCN1CCN(c2ncc3c(n2)CCN(Cc2ccc(Br)s2)C3)CC1", "activity change, negative = cytotoxicity": "inactive: -6.21%"}
{"smiles": "CCCCNC(=O)c1c(C)oc2ncn(CC(C)C)c(=O)c12", "Potency": "inconclusive: 3.98 µM [cytotoxic, single point]"}
{"smiles": "Cc1ccccc1OCC(=O)Nc1cc(-c2cccc(Br)c2)nn1-c1ccccc1", "Potency": "inconclusive: 39.8 µM [rising, single point]"}
{"smiles": "CCOC(=O)c1cccc(NC(=O)C(C)n2nc(C)c3c(C)n(-c4ccccc4)nc3c2=O)c1", "note": "(stereo not given)", "Potency": "inconclusive: 17.8 µM [cytotoxic, single point]"}
{"smiles": "Cc1ccc([N+](=O)[O-])cc1NC(=O)CN(c1ccccc1)S(=O)(=O)N(C)C", "activity change, negative = cytotoxicity": "inactive: 24.1%"}
{"smiles": "CCOc1ccc(NC(=O)Cn2c(=O)n(CCCC(=O)NCCc3ccc(Cl)cc3)c(=O)c3ccccc32)cc1", "Potency": "inconclusive: 20 µM [cytotoxic, partial curve]"}
{"smiles": "Cc1cccc(N2CCN(S(=O)(=O)c3ccc(-c4cnc(C5CC5)o4)cc3)CC2)c1C", "Potency": "inconclusive: 31.6 µM [cytotoxic, partial curve, poor fit]"}
{"smiles": "COc1ccccc1-c1nn2c(=O)cc(CN3CCN(C(=O)Nc4ccc(C)cc4Cl)CC3)nc2s1", "Potency": "inconclusive: 20 µM [cytotoxic, partial curve, poor fit]"}
{"smiles": "CCOc1ccc(-n2c(=O)c3c(C)c(C)sc3n(CC(=O)C(C)(C)C)c2=O)cc1", "Potency": "inconclusive: 5.01 µM [rising, partial curve]"}
{"smiles": "COc1cc(C(=O)NCC(c2ccco2)S(=O)(=O)c2cccs2)cc(OC)c1OC", "note": "(stereo not given)", "Potency": "inconclusive: 17.8 µM [cytotoxic, single point]"}
{"smiles": "Cc1cc(-c2ccc(C)c(S(=O)(=O)NC(c3cccs3)C(C)C)c2)on1", "note": "(stereo not given)", "Potency": "inconclusive: 12.6 µM [cytotoxic, partial curve, poor fit]"}
{"smiles": "Cc1cccc(CNS(=O)(=O)c2ccc(-c3cnc(C4CC4)o3)cc2)c1", "Potency": "inconclusive: 8.91 µM [cytotoxic, partial curve, poor fit]"}
{"smiles": "COc1ccccc1NC(=O)c1cc2ccc3cccnc3c2[nH]1", "Potency": "inconclusive: 39.8 µM [cytotoxic, single point]"}
{"smiles": "COc1ccc(-c2nnc(SCc3cc(=O)c4cc(C)cc(C)c4[nH]3)n2C)cc1", "Potency": "inconclusive: 2.51 µM [cytotoxic, full curve, poor fit]"}
{"smiles": "CC(=O)c1cccc(NC(=O)c2nc3ccccc3n(C)c2=O)c1", "Potency": "inconclusive: 28.2 µM [cytotoxic, single point]"}
{"smiles": "CCN1CCN(CCCNC(=O)c2cc3c(s2)-c2ccccc2OC3)CC1", "Potency": "inconclusive: 39.8 µM [cytotoxic, single point]"}
{"smiles": "COc1ccc(CNC(=O)Nc2ccc3c(c2)N(C)C(=O)c2ccccc2S3)cc1", "Potency": "inconclusive: 25.1 µM [cytotoxic, single point]"}
{"smiles": "CC(=O)C1=C(c2ccc(C)cc2)N(C(C)=O)n2c(nnc2C2CCCCC2)S1", "Potency": "inconclusive: 39.8 µM [cytotoxic, single point]"}
{"smiles": "CCc1ccc(NC(=O)c2sc3ncnc(N(C)C4CCCCC4)c3c2C)cc1", "Potency": "inconclusive: 31.6 µM [cytotoxic, single point]"}
{"smiles": "Cc1ccc(NC(=O)c2sc3nc4c(cc3c2N)CN(Cc2ccccc2)CC4)cc1", "Potency": "inconclusive: 39.8 µM [cytotoxic, partial curve, poor fit]"}
{"smiles": "COCCCNc1oc(-c2ccc(COc3ccc(Cl)cc3)o2)nc1C#N", "Potency": "inconclusive: 39.8 µM [cytotoxic, partial curve, poor fit]"}
{"smiles": "O=C(Nc1sc2c(c1C(=O)NCC1CCCO1)CCC2)c1cc(=O)c2ccccc2o1", "note": "(stereo not given)", "Potency": "inconclusive: 2.82 µM [rising, single point]"}
{"smiles": "Cc1ccc2c(=O)cc(C(=O)Nc3cccc(C(F)(F)F)c3)oc2c1C", "Potency": "inconclusive: 5.01 µM [cytotoxic, partial curve, poor fit]"}
{"smiles": "Cc1ccc(NC(=O)CCc2c(C)nc3cc(-c4ccccc4)nn3c2C)cc1F", "activity change, negative = cytotoxicity": "inactive: 15%"}
{"smiles": "COc1ccc(-c2nc3c(C#N)c[nH]n3c2NC2CCCC2)c(OC)c1", "Potency": "inconclusive: 39.8 µM [cytotoxic, single point]"}
{"smiles": "Cc1ccc(NC(=O)CSc2nc(-c3ccco3)cc(C(F)(F)F)n2)cc1", "activity change, negative = cytotoxicity": "inactive: -8.45%"}
{"smiles": "CC(C)c1ccc(OC(=O)c2cc(-c3ccccc3)on2)cc1", "activity change, negative = cytotoxicity": "inactive: 3.68%"}
{"smiles": "COc1ccc(CNc2oc(-c3ccc(COc4ccccc4C)o3)nc2C#N)cc1", "activity change, negative = cytotoxicity": "inactive: -12.2%"}
{"smiles": "Cc1cn2c(=O)cc(COC(=O)COc3ccccc3C)nc2s1", "Potency": "inconclusive: 0.0251 µM [rising, full curve, poor fit]"}
{"smiles": "Cc1ccccc1C(=O)OCc1cc(=O)n2nc(-c3cccs3)sc2n1", "Potency": "inconclusive: 22.4 µM [cytotoxic, partial curve, poor fit]"}
{"smiles": "CN(C)CCN(Cc1ccco1)C(=O)c1oc2ccccc2c1NC(=O)c1ccccc1", "Potency": "inconclusive: 39.8 µM [cytotoxic, single point]"}
{"smiles": "CCOc1ccccc1NC(=O)c1cnn2c(C(F)F)cc(-c3ccccc3)nc12", "activity change, negative = cytotoxicity": "inactive: 24.7%"}
{"smiles": "Cc1ccc(/C=C/c2onc(C)c2S(=O)(=O)N2CCC(C(=O)NCC(C)c3ccccc3)CC2)cc1", "note": "(stereo not given)", "activity change, negative = cytotoxicity": "inactive: 26.9%"}
{"smiles": "Cc1cc(Cl)ccc1NC(=O)CN(c1ccccc1Br)S(C)(=O)=O", "Potency": "inconclusive: 20 µM [cytotoxic, partial curve, poor fit]"}
{"smiles": "COc1ccc(CN2CCN(c3ncnc4sc5c(c34)CC(C)CC5)CC2)cc1F", "note": "(stereo not given)", "Potency": "inconclusive: 8.91 µM [cytotoxic, partial curve]"}
{"smiles": "Cc1ccccc1C(=O)Nc1nc(-c2nnn(-c3ccc(C(C)C)cc3)c2C)ns1", "Potency": "inconclusive: 25.1 µM [cytotoxic, partial curve, poor fit]"}
{"smiles": "COc1ccccc1N1CCN(CCCNC(=O)c2cnn(-c3ccccc3)c2C2CCN(C(=O)OC(C)(C)C)CC2)CC1", "Potency": "inconclusive: 28.2 µM [cytotoxic, single point]"}
{"smiles": "Cc1ccc(NC(=O)C2CCC(CNS(=O)(=O)c3csc(C(N)=O)c3)CC2)cc1Cl", "note": "(stereo not given)", "Potency": "inconclusive: 0.891 µM [cytotoxic, full curve, poor fit]"}
